About 800 (1.6%) of roughly 50,000 compounds showed an effect of 50% or more. The list shows a part of the results.
The compounds below were run against Bcl-2-like protein 10 (Homo sapiens) (UniProt Q9HD36) (assay: Phenotype converters, Bcl-B/TR3 peptide binding displacement, primary biochemical FP (AID 1240;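 also: 0% = Bcl-B with tracer peptide and DMSO and 100% = tracer peptide lacking Bcl-B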)). Settings: GST-Bcl-B / FITC-TR3 peptide fluorescence polarization; stronger effect = higher value; compound at 3.75 mg/L.
Chain of UniProt Q9HD36 (Q9HD36 whole entry, looked up): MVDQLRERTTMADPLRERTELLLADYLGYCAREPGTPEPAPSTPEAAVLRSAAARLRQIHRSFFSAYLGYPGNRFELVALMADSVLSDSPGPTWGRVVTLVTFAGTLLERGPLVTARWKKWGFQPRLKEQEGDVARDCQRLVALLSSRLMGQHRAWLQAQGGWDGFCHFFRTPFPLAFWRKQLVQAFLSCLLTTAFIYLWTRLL
Work on `Cc1cccc(NC(=O)c2cc([N+](=O)[O-])ccc2Cl)c1C` yielded a displacement of 0%.
`CCOc1ccccc1C1Nc2ccccc2NC2=C1C(=O)CC(c1ccc3c(c1)OCO3)C2` (stereo unspecified) gave a displacement of 8.2%.
`CC(=O)C1=C(C)NC(=O)NC1c1cc(Br)ccc1O` (stereo unspecified) showed a displacement of -8.1%.
`COc1ccc(C(=O)CC(Nc2ccc(Cl)cc2)c2ccccc2)cc1` (stereo unspecified) showed a displacement of -6.6%.
With `Cc1ccc(NC(=O)COc2ccc(Cl)cc2C)c([N+](=O)[O-])c1` the displacement was 17.1%.
Compound `CCOC(=O)/C=C(\C)N1N=C(c2ccccc2)CC1c1ccccc1[N+](=O)[O-]` (stereo unspecified) has a displacement of 12%.
In the case of `Cc1ccc(/C=C2\CN(C)C/C(=C\c3ccc(C)cc3)C2=O)cc1`, the displacement is reported as -4.1%.
Work on `COc1ccc(OC)c(C=Nc2ccc(I)cc2)c1` yielded a displacement of 3.6%.
`CC(=O)C1=C(O)C(=O)N(CCN(C)C)C1c1ccc(Br)cc1` (stereo unspecified) was tested, and the displacement was -3.6%.
`CC1(C)CC(=O)C2=C(C1)Nc1ccccc1N(C(=O)c1ccc(Cl)cc1)C2c1ccco1` (stereo unspecified) was tested, and the displacement was 0.1%.
Compound `Cc1ccccc1OCC(=O)NNC(=O)C(F)(F)F` has a displacement of 8.6%.
`Cc1cccc(OCC(=O)N2CCc3ccccc3C2)c1` showed a displacement of 6.8%.
In the case of `COc1ccc(CCNC(=O)Nc2ccc(Cl)c(Cl)c2)cc1`, the displacement is reported as -6.1%.
In the case of `CC(=O)c1ccc(NC(=O)Cc2ccc(Br)cc2)cc1`, the displacement is reported as -2.5%.
Compound `COc1ccc(C(=O)Nc2ccccc2C(=O)NCCC(=O)NCc2ccco2)cc1` has a displacement of 11.4%.
For `COc1ccc(CCN=C(Nc2ccccc2)SC2CC(=O)N(c3ccc(F)cc3)C2=O)cc1` (stereo unspecified), the displacement was -7%.
`CC1=C(C(=O)Nc2cccc(C)c2)C(c2ccc3c4c(cccc24)CC3)NC(=S)N1` (stereo unspecified) showed a displacement of 8.1%.
Compound `Cc1ccc(OCC(=O)N/N=C\c2ccc(-c3ccc([N+](=O)[O-])cc3)o2)cc1` has a displacement of 116%.
Work on `Nc1cccc(NC(=O)CCC(=O)O)n1` yielded a displacement of 4.3%.
In the case of `COC(=O)C1C(O)=C(C(C)=NC(C)C)C(=O)CC1(C)C` (stereo unspecified), the displacement is reported as -15.9%.
`COC(=O)c1ccc(-c2ccc(/C=C3/SC(NC(C)=O)=NC3=O)o2)cc1` was tested, and the displacement was 10.7%.
Compound `CC(=O)Oc1ccc(C2C(C(=O)OC(C)C)=C(C)NC3=C2C(=O)CC(C)(C)C3)cc1` (stereo unspecified) has a displacement of 11.6%.
`COc1cc(/C=N/NC(=O)c2ccccn2)cc(OC)c1O` showed a displacement of -1.2%.
In the case of `Cc1cc(C)nc(Sc2ccc3nnc(C(F)(F)F)n3n2)n1`, the displacement is reported as 8.1%.
With `COc1ccc(-n2nc3cc(C)c(NC(=O)c4ccc5c(c4)OCCO5)cc3n2)cc1` the displacement was 28.3%.
`Cc1cccc(OCC(=O)Nc2cccc(C(=O)NCC(C)C)c2)c1` gave a displacement of 11.8%.
`Cc1c(C(N)=O)sc(N)c1C(=O)OC(C)C` was tested, and the displacement was -2.1%.
With `O=C(NCCCO)C(=O)Nc1cccc(C(F)(F)F)c1` the displacement was 3.4%.
Work on `CCc1ccc(NC(=O)C(=O)NCc2ccc3c(c2)OCO3)cc1` yielded a displacement of 10.5%.
`CC1(C)CC(=O)CC(=Nc2ccc(F)cc2)C1` gave a displacement of -4.9%.
In the case of `Cc1ccccc1OCCOc1ccc(Cl)cc1/C=N/n1cnnc1`, the displacement is reported as -2.5%.
With `CN(C)c1ccc(-c2nc3cc(NC(=O)c4cccc(Br)c4)ccc3o2)cc1` the displacement was 62.5%.
For `CC(=O)c1cccc(NC2C=CS(=O)(=O)C2)c1` (stereo unspecified), the displacement was 16.4%.
Work on `Cc1cc(Cl)ccc1OCC(=O)Nc1ccc(N2CCOCC2)cc1` yielded a displacement of 17.4%.
With `Cc1cc(NC(=O)c2cc(-c3ccc(C(C)C)cc3)nc3ccccc23)no1` the displacement was 5.5%.
Compound `Cc1ccc(S(=O)(=O)N(CC(=O)Nc2cccc(C)c2)c2cccc(Cl)c2C)cc1` has a displacement of -7.7%.
`Cc1nonc1N=Cc1cc(I)cc(I)c1O` was tested, and the displacement was -5.7%.
`CCOC(=O)c1sc(NC(=O)c2c(-c3ccccc3Cl)noc2C)c(C(=O)OCC)c1C` gave a displacement of 36.2%.
Work on `CC1(C)CC(=O)c2cnc(NC(=O)Cc3ccc(Cl)cc3)nc2C1` yielded a displacement of -0.2%.
`Cc1ccc(NC(=O)C(=O)NCCN2CCN(S(=O)(=O)c3ccc4ccccc4c3)CC2)cc1` was tested, and the displacement was 7.5%.
`CCCOc1ccc(C=C2C(=O)N(C)C(=O)N(C)C2=O)cc1OC` showed a displacement of 1.3%.
With `CCN(CC)c1ccc(/C=C2/SC(=S)N(CN3CCCCC3)C2=O)cc1` the displacement was -22.2%.
In the case of `CCOc1cc(/C=c2/sc3nc4ccccc4n3c2=O)cc(I)c1OCC`, the displacement is reported as 77.3%.
`CCN(CC(O)Cn1c2ccccc2c2ccccc21)S(=O)(=O)c1ccc(C)cc1` (stereo unspecified) was tested, and the displacement was -0.9%.
Compound `COc1ccc(N2C(=O)CC(N3CCC(O)CC3)C2=O)cc1` (stereo unspecified) has a displacement of -0.8%.
Work on `CC1(C)CC(=O)C2=C(C1)OC1=C(C(=O)CC(C)(C)C1)C2c1ccc(-c2ccc3c(c2)COC3=O)o1` yielded a displacement of 2.3%.
`COC(=O)Cn1cnc(=O)c(C#N)c1C` gave a displacement of 2%.
`O=S(=O)(O)c1cc(-n2nc3ccc4c(S(=O)(=O)O)cccc4c3n2)ccc1/C=C/c1ccccc1` showed a displacement of 17.1%.
For `Cc1ccc(-c2nnc3s/c(=C\c4ccccc4)c(=O)n23)cc1`, the displacement was -23.9%.
For `CCOC(=O)c1c(NC(=O)CC(c2ccccc2)c2ccccc2)sc(C(N)=O)c1C`, the displacement was 0.4%.
`CC(O)C#CCN1C(C)CCCC1C` (stereo unspecified) gave a displacement of 1.8%.
`CC(=O)C1C(=O)c2ccccc2/C1=N/N=C/c1ccc([N+](=O)[O-])cc1` (stereo unspecified) showed a displacement of -13.6%.
With `CC(=O)c1c(NCCc2ccccc2)nc(=O)n(-c2ccccc2)c1C` the displacement was -3.1%.
`COc1ccc(CC(=O)Nc2ccc(-c3nc4ccccc4[nH]3)cc2)cc1OC` showed a displacement of -10.2%.
In the case of `CCOC(=O)c1c(N2CCOCC2)c2ccccc2[nH]c1=O`, the displacement is reported as -10.7%.
In the case of `COc1ccc(C2/C(=C(/O)c3ccc(C)cc3)C(=O)C(=O)N2CCCn2ccnc2)cc1OC` (stereo unspecified), the displacement is reported as -3.4%.
`N#CC1=C(SCC(=O)Nc2ccccc2)NC(=O)C(C#N)C12CCCC2` (stereo unspecified) gave a displacement of 6.8%.
With `O=C(c1c(F)cccc1F)N1CCN(c2cc(N3CCOCC3)c(F)cc2[N+](=O)[O-])CC1` the displacement was -12.7%.
Compound `O=[N+]([O-])c1ccc(/C=N/Nc2c(Cl)cc(Cl)cc2Cl)cc1` has a displacement of 6.7%.
Compound `COc1cc(C2Nc3ccccc3NC3=C2C(=O)CC(c2ccc(Cl)cc2)C3)cc(Br)c1O` (stereo unspecified) has a displacement of 10.8%.
For `COc1ccccc1C1/C(=C(\O)c2ccc(C)cc2)C(=O)C(=O)N1CCCC(=O)O` (stereo unspecified), the displacement was -3.5%.
Compound `COc1cc(OC)c(C2NC(=O)NC(C)=C2C(=O)Nc2ccccc2C)cc1OC` (stereo unspecified) has a displacement of 13.3%.
For `CCOCCOC(=O)C1=C(C)NC2=C(C(=O)CC(C)(C)C2)C1c1cccc(O)c1` (stereo unspecified), the displacement was 7.3%.
For `Cn1/c(=N/N=C/c2cccc(C(F)(F)F)c2)sc2ccccc21`, the displacement was -9.9%.
Compound `COc1cc2c(cc1NCc1ccc3c(c1)OCO3)oc1ccccc12` has a displacement of -11%.
For `CCOc1cc(OCC)cc(C(=O)Nc2cc(-c3nc4ccccc4s3)ccc2Cl)c1`, the displacement was 18.2%.
`Cc1cccc(-c2n[nH]c(=S)n2-c2ccccc2)c1` was tested, and the displacement was 14.4%.
For `N#Cc1ccccc1C(C(N)=O)(c1ccccc1)c1ccccc1C#N`, the displacement was -0.9%.
For `Cc1ccccc1S(=O)(=O)Nc1cc(Br)c2oc3c(c2c1)C(=O)CCC3`, the displacement was 2.5%.
Work on `O=C(NCc1ccccn1)c1cc(-c2ccccc2Cl)nc2ccccc12` yielded a displacement of 1.4%.
With `O=C1/C(=C/c2ccc(-c3ccccc3[N+](=O)[O-])o2)SC(=S)N1c1cccc(Cl)c1` the displacement was 73.5%.
With `O=C(/C=C/c1ccc(F)cc1)N1CCN(c2cccc(Cl)c2)CC1` the displacement was 7.5%.
`O=C1C2C3C=CC(C4CC34)C2C(=O)N1Cc1ccccc1` (stereo unspecified) gave a displacement of -5%.
`COc1ccc(C(=O)/C=C/Nc2ccc(Br)c(C)c2)cc1` was tested, and the displacement was 14.5%.
In the case of `CC(=O)Nc1ccc(N2C(=O)c3cccc4c(C(=O)c5ccccc5)ccc(c34)C2=O)cc1`, the displacement is reported as 7.4%.
With `COC(=O)C1=C(C)NC(=O)CC1c1ccc(C(F)(F)F)cc1` (stereo unspecified) the displacement was 5.8%.
For `O=C(c1ccccc1)c1ccccc1C(=O)N1CCCCC1`, the displacement was 2.2%.
`O=[N+]([O-])c1ccc(/C=N/n2cnnc2SCc2ccccc2)cc1` was tested, and the displacement was -4.5%.
Compound `N#CC1=C(N)Oc2c(ccc3ccccc23)C1c1ccc(Cl)cc1Cl` (stereo unspecified) has a displacement of -3.5%.
Compound `Cc1ccc(S(=O)(=O)NCCNS(C)(=O)=O)cc1[N+](=O)[O-]` has a displacement of 9.4%.
In the case of `CN1C(=O)/C(=C/c2ccc(-c3ccc(F)cc3)o2)SC1=S`, the displacement is reported as 8.1%.
In the case of `COc1ccc(/C=C(/C(=O)c2c(C)cc(C)[nH]c2=O)c2ccccc2)cc1`, the displacement is reported as 7.1%.
`CCc1nn(-c2ccccc2)c(N)c1C` was tested, and the displacement was 10.5%.
Work on `O=C(NC1=NCCS1)C1CC2CCC1C2` (stereo unspecified) yielded a displacement of 11.1%.
Compound `CCOP(=O)(OCC)C(Nc1cccc(C(F)(F)F)c1)c1cc(Cl)cc(Cl)c1OC` (stereo unspecified) has a displacement of -4.5%.
`COc1cccc(C2NC(=O)NC(C)=C2C(=O)Nc2ccccc2C)c1` (stereo unspecified) gave a displacement of 4.3%.
`N#CCCn1cc(/C=C2\N=C(c3ccccc3)OC2=O)c(-c2ccc(Cl)cc2)n1` gave a displacement of -7.5%.
`Cc1ccc(-c2csc(NC(=O)C3CC=CCC3C(=O)O)c2C(=O)OC(C)C)cc1` (stereo unspecified) was tested, and the displacement was -3.1%.
With `CCC(C)(C)C1CCC2(CC1)NC(CO)(CO)CO2` (stereo unspecified) the displacement was -6.9%.
`CCOC(=O)N1CCN(C(=O)C(C)N2C(=O)c3ccccc3C2=O)CC1` (stereo unspecified) showed a displacement of -1.9%.
Work on `O=C(Nc1cccc([N+](=O)[O-])c1)c1cccc(S(=O)(=O)N(CCO)CCO)c1` yielded a displacement of -13.4%.
`COc1ccc(Cl)cc1N(CC(=O)NCCSc1ccc(C)cc1)S(=O)(=O)c1ccccc1` gave a displacement of 2.8%.
Compound `C/C(=C\C(=O)OC1CC(C)(C)NC(C)(C)C1)NC1CC(C)(C)NC(C)(C)C1` has a displacement of 5.9%.
Work on `C=CCc1cccc2cc(C(=O)NNC(=O)CC#N)c(=O)oc12` yielded a displacement of 20.6%.
Compound `O=S(=O)(Nc1cccc(F)c1)c1ccc2ccccc2c1` has a displacement of -0.8%.
`C=CCNC(=O)C(=O)NCc1ccc(C)cc1` was tested, and the displacement was 12.1%.
`COc1ccc(CN2CCN(S(=O)(=O)c3ccc(C)cc3)CC2)c(OC)c1` gave a displacement of -0.7%.
Work on `CC1CCN(C(=O)C(C(C)C)N2C(=O)c3ccccc3C2=O)CC1` (stereo unspecified) yielded a displacement of 1.7%.
`CCOC(=O)c1c(-c2ccccc2)csc1NC(=O)c1ccc(N2C(=O)CCC2=O)cc1` showed a displacement of -6.7%.
In the case of `CC(C(=O)c1ccccc1)C(=O)c1ccccc1`, the displacement is reported as 4.3%.
For `O=C(/C=C/c1ccc(-c2ccccc2[N+](=O)[O-])o1)C12CC3CC(CC(C3)C1)C2`, the displacement was 10.5%.
For `O=C1NC(=S)N/C1=C/c1cc2c(cc1Cl)OCO2`, the displacement was 8.2%.
Compound `Cc1ccc(C(C)C)c(OCc2nnc(NC(=O)Nc3ccc(Cl)cc3)s2)c1` has a displacement of 5.5%.
`O=C(O)COc1ccccc1/C=N/N1CCN(C(c2ccccc2)c2ccccc2)CC1` showed a displacement of -9.4%.
With `Cc1nc2cc(-c3cccc(Cl)c3)[nH]n2c(=O)c1C` the displacement was 3.4%.
Work on `COc1ccc(CN=Cc2c(O)n(-c3cc(OC)ccc3OC)c(=O)[nH]c2=O)cc1` yielded a displacement of -0.3%.

Reference: PubChem BioAssay AID1240 (Sanford-Burnham Center for Chemical Genomics, 2008)
